Measured values from the supplement of paper PMC10320760.
This is a noisy data set.

B1: Ydj1; a variant is named by its letters at X, in order (parent)
chain: MVKETKFYDILGVPVTATDVEIKKAYRKCALKYHPDKNPSEEAAEKFKEASAAYEILSDPEKRDIYDQFGEDGLSGAGGAGGFPGGGFGFGDDIFSQFFGAGGAQRPRGPQRGKDIKHEISASLEELYKGRTAKLALNKQILCKECEGRGGKKGAVKKCTSCNGQGIKFVTRQMGPMIQRFQTECDVCHGTGDIIDPKDRCKSCNGKKVENERKILEVHVEPGMKDGQRIVFKGEADQAPDVIPGDVVFIVSERPHKSFKRDGDDLVYEAEIDLLTAIAGGEFALEHVSGDWLKVGIVPGEVIAPGMRKVIEGKGMPIPKYGGYGNLIIKFTIKFPENHFTSEENLKKLEEILPPRIVPAIPKKATVDECVLADFDPAKYNRTRASRGGANYDSDEEEQGGEGVQCXXX

Variants of: B1
Assay: enrichment factor, frequency at 37 °C / frequency at 25 °C (thermotolerance selection) (ratio); higher = more growth at 37 °C, higher likelihood of farnesylation
Details: with Saccharomyces cerevisiae ydj1Δ (yWS304); selective temperature 37 °C; reference temperature 25 °C

Variant	enrichment factor
KSL	0.611
LSL	1.58
MSL	1.13
NSL	1.55
PSL	1.51
QSL	1.77
RSL	1.45
SSL	1.06
TSL	2.23
CSL	1.01
VSL	2.56
WSL	1.87
YSL	0.623
DSM	1.22
ESM	1.35
FSM	0.927
GSM	1.57
HSM	2.38
ISM	1.59
ASM	1.81
KSM	1.41
LSM	1.69
MSM	1.77
NSM	2.05

Variant	enrichment factor
PSM	1.54
QSM	2.36
RSM	2.14
SSM	1.52
TSM	1.66
VSM	1.45
CSM	1.17
WSM	1.71
YSM	2.18
DSN	0.203
ESN	0.937
FSN	1.66
GSN	0.342
HSN	2.27
ISN	1.95
ASN	1.6
KSN	1.72
LSN	1.27
MSN	1.92
NSN	1.08
PSN	1.81
QSN	1.58
RSN	1.5
SSN	1.5

Variant	enrichment factor
TSN	1.69
VSN	1.49
CSN	2.04
WSN	1.39
YSN	1.32
DSP	0.213
ESP	0.156
FSP	1.5
GSP	0.128
HSP	0.161
ISP	0.104
ASP	0.142
KSP	0.284
LSP	0.2
MSP	0.163
NSP	0.0847
PSP	0.127
QSP	0.104
RSP	0.0965
SSP	0.164
TSP	0.212
VSP	0.0738
CSP	0.192
WSP	1.64

Variant	enrichment factor
YSP	0.191
DSQ	1.35
ESQ	1.52
FSQ	2.34
GSQ	1.55
HSQ	1.69
ISQ	1.58
ASQ	1.61
KSQ	1.7
LSQ	1.32
MSQ	1.51
NSQ	1.58
PSQ	1.61
QSQ	1.73
RSQ	1.78
SSQ	1.68
TSQ	1.86
VSQ	1.76
CSQ	1.91
WSQ	1.62
YSQ	3.47
DSR	0.128
ESR	0.199
FSR	0.247

Variant	enrichment factor
GSR	0.207
HSR	0.105
ISR	0.218
ASR	0.192
KSR	0.361
LSR	0.127
MSR	0.185
NSR	0.197
PSR	0.139
QSR	0.151
RSR	0.169
SSR	0.149
TSR	0.13
VSR	0.157
CSR	0.132
WSR	0.45
YSR	0.147
DSS	0.166
ESS	1.27
FSS	2.02
GSS	1.62
HSS	2.51
ISS	1.69
ASS	2.18

Variant	enrichment factor
KSS	1.76
LSS	1.53
MSS	1.52
NSS	1.78
PSS	1.83
QSS	1.89
RSS	1.73
SSS	1.98
TSS	1.58
VSS	2.04
CSS	1.44
WSS	1.73
YSS	2.34
DST	0.211
EST	1.11
FST	1.62
GST	0.739
HST	1.77
IST	1.56
AST	1.53
KST	1.54
LST	1.67
MST	1.88
NST	1.62

Variant	enrichment factor
PST	1.87
QST	2.12
RST	1.32
SST	2.21
TST	1.79
VST	2.13
CST	1.39
WST	1.6
YST	1.41
DSV	0.223
ESV	1.24
FSV	1.2
GSV	1.29
HSV	2.38
ISV	2.2
ASV	1.44
KSV	1.28
LSV	1.62
MSV	1.66
NSV	1.47
PSV	1.4
QSV	2.11
RSV	1.52
SSV	2.17

Variant	enrichment factor
TSV	1.93
VSV	1.99
CSV	0.695
WSV	1.32
YSV	1.88
DSW	0.22
ESW	1.57
FSW	1.22
GSW	0.802
HSW	0.965
ISW	1.3
ASW	1.32
KSW	1.86
LSW	1.52
MSW	1.74
NSW	1.68
PSW	1.53
QSW	1.64
RSW	1.39
SSW	1.48
TSW	1.89
VSW	1.59
CSW	0.655
WSW	1.69

Variant	enrichment factor
YSW	1.26
DSY	0.277
ESY	1.23
FSY	1.32
GSY	1.07
HSY	2.19
ISY	1.51
ASY	1.75
KSY	1.87
LSY	1.23
MSY	1.92
NSY	1.8
PSY	2
QSY	2.22
RSY	1.35
SSY	2.68
TSY	2.37
VSY	3.08
CSY	0.947
WSY	1.03
YSY	1.76
DTA	0.656
ETA	1.5
FTA	4.14

Variant	enrichment factor
GTA	1.76
HTA	2.16
ITA	0.95
ATA	1.98
KTA	1.5
LTA	1.41
MTA	1.73
NTA	1.62
PTA	1.73
QTA	1.88
RTA	1.58
STA	1.75
TTA	2.09
VTA	2.13
CTA	1.58
WTA	1.83
YTA	5.21
DTC	1.7
ETC	2.36
FTC	1.81
GTC	1.19
HTC	3.86
ITC	1.2
ATC	1.41

Variant	enrichment factor
KTC	1.82
LTC	0.0912
MTC	1.41
NTC	1.72
PTC	1.49
QTC	1.94
RTC	1.13
STC	2.27
TTC	1.61
VTC	3.1
CTC	0.459
WTC	1.27
YTC	2.93
DTD	0.152
ETD	0.528
FTD	0.934
GTD	0.366
HTD	1.71
ITD	1.13
ATD	1.19
KTD	1.38
LTD	1.37
MTD	1.09
NTD	1.07

Variant	enrichment factor
PTD	1.66
QTD	1.39
RTD	1.47
STD	1.34
TTD	1.4
VTD	1.5
CTD	2.07
WTD	1.17
YTD	0.752
DTE	0.165
ETE	0.486
FTE	0.411
GTE	0.255
HTE	0.834
ITE	1.03
ATE	1.33
KTE	1.34
LTE	0.958
MTE	1.11
NTE	0.582
PTE	1.65
QTE	0.878
RTE	1.17
STE	0.806

Variant	enrichment factor
TTE	1.8
VTE	1.16
CTE	1.89
WTE	1.49
YTE	0.397
DTF	1.76
ETF	1.78
FTF	2.2
GTF	1.65
HTF	8.45
ITF	1.55
ATF	2.25
KTF	2.52
LTF	1.18
MTF	1.04
NTF	1.81
PTF	1.54
QTF	1.94
RTF	1.57
STF	1.64
TTF	2.32
VTF	2.28
CTF	0.711
WTF	0.975

Variant	enrichment factor
YTF	0.886
DTG	0.216
ETG	1.65
FTG	1.54
GTG	1.35
HTG	2.02
ITG	1.02
ATG	1.99
KTG	1.64
LTG	1.33
MTG	1.63
NTG	1.9
PTG	1.78
QTG	1.6
RTG	1.57
STG	1.97
TTG	1.84
VTG	1.83
CTG	1.51
WTG	1.07
YTG	2
DTH	1.87
